Data on 86 sequences can be found in the supplement of paper PMC3334620.

The full ranking holds about 33,000 sequences; the median of “E-score (-0.5 to 0.5)” is about -0.036, and the highest 2% start at about 0.37. The list shows a part of the results.

In the assay the target is T1, Yer064c (UniProt P40041).
T1 sequence: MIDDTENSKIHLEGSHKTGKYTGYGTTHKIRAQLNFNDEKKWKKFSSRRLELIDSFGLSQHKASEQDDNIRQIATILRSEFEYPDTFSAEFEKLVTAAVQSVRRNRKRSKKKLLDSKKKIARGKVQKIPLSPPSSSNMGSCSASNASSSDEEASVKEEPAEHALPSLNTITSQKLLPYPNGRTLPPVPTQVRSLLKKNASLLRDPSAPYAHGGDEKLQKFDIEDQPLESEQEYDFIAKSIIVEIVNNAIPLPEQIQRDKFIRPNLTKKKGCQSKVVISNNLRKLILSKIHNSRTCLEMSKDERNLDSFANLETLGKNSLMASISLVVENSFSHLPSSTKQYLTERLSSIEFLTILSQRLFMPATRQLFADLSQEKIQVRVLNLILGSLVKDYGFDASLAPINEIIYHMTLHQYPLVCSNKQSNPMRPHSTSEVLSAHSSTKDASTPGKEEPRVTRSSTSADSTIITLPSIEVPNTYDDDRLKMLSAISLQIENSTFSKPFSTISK
In words: PBM E-score (8-mer binding enrichment) (E-score (-0.5 to 0.5)); higher = stronger / more preferred TF binding; most listed sequences are background and not binding sites. The settings on record: protein concentration: 200 nM; construct: GST-full length. The essentials:
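GST-tagged yeast TFs (full-length or DNA-binding domain) were made by PURExpress in vitro transcription/translation and applied at about 100-200 nM to universal all-10-mer Agilent arrays. The arrays were made double-stranded by primer extension, on fresh or once-stripped slides. Bound protein was detected with fluorescent anti-GST, and scans were normalised with masliner. Each ungapped eight-base word, pooled with its reverse complement, received an E-score (modified Wilcoxon-Mann-Whitney statistic) from the Universal PBM Analysis Suite.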
With CCTAGAGA, the “PBM E-score” value is 0.0432.
The figure for AAAAACCC is -0.204; for CTAGTGTA it is 0.0423.
As for GCAGCTGC, the figure is -0.371; as for TCGGCGCA, -0.323; as for GATGCTCC, -0.345.
For GTTTCATA, the “PBM E-score” value is -0.116.
As for AACTTCGG, the “PBM E-score” value is -0.114.
Consider CGCAACGA, for which the “PBM E-score” value was 0.0597.
On to ATTTCAGA, for which the “PBM E-score” value is 0.0892.
Take TTCGGCAA: the “PBM E-score” value stood at 0.058.
The figure for CAGATGCG is -0.0493; for AAACTAGG it is -0.0737.
As for CTCAAAAA, the figure is 0.113; as for GGTCCCCA, -0.256.
As to GTTGAACA, the “PBM E-score” value is -0.183.
CGTTCCAA: the “PBM E-score” value was -0.0629.
The figure for TAAGAAAA is 0.0433.
As for GCCCGTAC, the “PBM E-score” value was -0.306.
Take CCACAAAC: the “PBM E-score” value was 0.00979.
The figure for AGCCCTCA is -0.239; for GGTCTGCA it is -0.173.
As for CGCTACGC, the “PBM E-score” value was -0.323.
As to ACGCTCAT, the “PBM E-score” value was -0.139.
For ATTTCGGG, the “PBM E-score” value is -0.155.
Take AAAGGGAC: the “PBM E-score” value was -0.00724.
For ACTGGTAT, the “PBM E-score” value is -0.142.
As for ACTCGACA, the figure is 0.148; as for CTTTATAA, 0.0334; as for CGGCGTAG, -0.104.
ACATTTAC: the “PBM E-score” value is -0.0584.
As for ACAATTGC, the figure is -0.134; as for CTACGATC, -0.0886.
Regarding ACCGGGTC, the “PBM E-score” value was -0.107.
As for CGTTTTTA, the figure is 0.0687; as for GGGCATAC, -0.0646; as for CTAAAGGC, -0.0256.
The figure for CCTAGTGA is 0.0002.
The figure for ATTCAGAC is 0.158.
In the case of CTCTGTCA, the “PBM E-score” value was -0.0955.
As for CCCTGCGA, the figure is 0.0409; as for CGTCGCAA, -0.0904.
Turning to CGTCGGCA, the “PBM E-score” value is -0.123.
The figure for CGGCGTGA is 0.164; for AGGGTGCA it is -0.218; for CCTACCAA it is -0.0734.
As for AACTTGAA, the figure is -0.0305.
As for CTTTCTGA, the figure is 0.0307.
Regarding AAATCACC, the “PBM E-score” value was found to be 0.328.
Turning to AATCCGCT, the “PBM E-score” value was -0.154.
The figure for GTCAAAGA is 0.202; for GCACAGGA it is -0.0012; for GGATATAC it is -0.0194.
As for ACAGCTCA, the “PBM E-score” value was -0.0698.
The figure for TACGTAGA is 0.137; for ATAGACAG it is 0.104; for CATTCCGC it is -0.178.
In the case of CTCGGTTC, the “PBM E-score” value was -0.136.
Regarding AGAGTGCT, the “PBM E-score” value is -0.0672.
On to AAGTATTC, for which the “PBM E-score” value is -0.0935.
As to AACGCCTT, the “PBM E-score” value is -0.207.
As for ATTTGGCC, the figure is -0.0365; as for CAGCTCAA, -0.00537.
Regarding CGGCGTTA, the “PBM E-score” value is -0.245.
For the sequence ATCATAAT, the “PBM E-score” value turned out to be 0.223.
For ATTGAGCC, the “PBM E-score” value came to 0.221.
The figure for CCTCCTAA is 0.0396; for CAGTTTGC it is -0.0801.
Consider CATAAAGG, for which the “PBM E-score” value came out at 0.0681.
The figure for CAGTCTCC is 0.211.
GATAGACC: the “PBM E-score” value was -0.01.
ATAAAAAC: the “PBM E-score” value was 0.164.
As for CACCAGGC, the figure is -0.109; as for CACCTAAG, 0.112; as for TATAAGGA, 0.108.
On to TAAGTAGA, for which the “PBM E-score” value was 0.077.
The figure for CCCTTCAG is -0.0755; for ATCTCAGA it is -0.113; for CACCGATA it is -0.0639.
The figure for AGTTATGG is 0.005; for ATGATGCC it is -0.0236.
On to ATTCACGC, for which the “PBM E-score” value was found to be 0.132.
As for GAAGCCCA, the figure is -0.134; as for GATGTACC, -0.126.
On to AACCGGGC, for which the “PBM E-score” value was -0.143.
The figure for GACTACGA is 0.413.
